# Experimental data published in publication PMC12040169 (PLOS Biology, 2025).
# The other results are listed elsewhere or left out.
# Test system: T1, C. trachomatis L2/434/Bu expressing GFP (CTL2-GFP)
# T1 construct: L2/434/Bu GFP intracellular growth in HeLa cells
# Parameters: species or system HeLa; C. trachomatis total inclusion area by high-content imaging, normalised to DMSO
# Details: total inclusion area; 28.5 h, 10 µM; inhibitor
# In short: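 Host cell viability was gauged from Hoechst-stained nuclei counts, while chlamydial growth was taken from total inclusion area and inclusion number per well. Cells were fixed and imaged by high-content microscopy once bulk GFP and resorufin fluorescence had been measured.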
row,SMILES,% of control remaining
1,COc1cc(/C=C(\C#N)c2nn(-c3ccccc3)c(N)c2C#N)ccc1Oc1ccc(C(F)(F)F)cc1[N+](=O)[O-] [CBK262484],117.777
2,COc1ccc(C(=O)Nc2nc(OC)cnc2-c2ccsc2)cc1 [CBK145293],122.932
3,Cc1ccccc1-c1ccccc1CC1(C(N)=O)CCN(C(=O)Cc2ccccc2)CC1 [CBK285724],95.4688
4,Cc1ccc2c(c1)CCCN2C(=O)c1cnc2c(c1)c(C)nn2C [CBK305670],82.4833
5,CC1(C)[C@H](Cc2cc(COc3ccccc3)on2)C[C@@H]1NS(C)(=O)=O [CBK289703],117.49
6,CC1CCCCN1C(=O)C1C2CCC3(CC(=O)c4ccccc4O3)C21 (stereo not shown) [CBK284960],101.313
7,Cc1noc(C)c1C(=O)Nc1ccc(S(=O)(=O)NCCc2ccccc2)cc1 [CBK268183],84.7072
8,CC1CCC2(CC1)NC(=O)N(Cc1coc(-c3ccccc3)n1)C2=O (stereo not shown) [CBK306196],65.809
9,O=C(NC(c1ccc(F)cc1)c1cnccn1)C1CCN(C(=O)c2ccco2)CC1 (stereo not shown) [CBK059956],74.5191
10,Cc1nc(SCCN2C(=O)c3ccccc3S2(=O)=O)c2ccccc2n1 [CBK296958],102.458
11,O=C(NC(c1ccc(F)cc1)c1ccccn1)C1CCN(C(=O)c2ccno2)CC1 (stereo not shown) [CBK059705],116.901
12,O=C1CCC(=O)N1CC(O)Cn1c2ccc(Cl)cc2c2cc(Cl)ccc21 (stereo not shown) [CBK262222],64.3016
13,O=C(c1ccncc1)N1CCc2ccccc21 [CBK200280],78.5491
14,O=C(Nc1ccc2[nH]ccc2c1)N1CCc2ccccc2C1 [CBK155289],87.506
15,CCCNCc1ccc(-c2nnn(CC(=O)NCc3ccc(C4CCC4)cc3)n2)cc1 [CBK167525C],70.9884
16,c1cncc(CN2CCCN(c3nccc(OCC4COc5ccccc5O4)n3)CC2)c1 (stereo not shown) [CBK083969],78.6815
17,Cc1cc(C)c(C)c(S(=O)(=O)Nc2cc(S(=O)(=O)N3CCOCC3)ccc2F)c1C [CBK269698],82.8641
18,O=C(COc1ccccc1Cl)Nc1cccc(NC(=O)c2cccc(Cl)c2)c1 [CBK263651],92.2294
19,Cc1nc2ncccn2c1-c1csc(Nc2ccc(C(=O)O)cc2)n1 [CBK263284],100.719
20,O=C(NCCCc1ccccn1)c1cccc(N2CCCC2=O)c1 [CBK282643],97.506
21,CC(C)c1ccc(S(=O)(=O)n2ccn(-c3cccc(C(F)(F)F)c3)c2=O)cc1 [CBK106587],108.517
22,O=C(O)CC1C(=O)NCCN1CC(c1ccccc1)c1ccccc1 (stereo not shown) [CBK286539],74.432
23,Cc1ccc(C)c(NS(=O)(=O)c2ccc(NC(=O)c3ccc(CN4CCOCC4)cc3)cc2)c1 [CBK264780],102.514
24,Cc1ccc(S(=O)(=O)N2CCOCC2)cc1C(=O)NCCc1ccccc1 [CBK269658],94.4482
25,c1ccc2oc(SCCCCSc3nc4ccccc4o3)nc2c1 [CBK025465],106.776
26,CC(C)c1ccc(C(C)NC(=O)c2ccc(=O)n(CC(=O)NC3CCCC3)c2)cc1 (stereo not shown) [CBK286038],103.38
27,CC(C(=O)NCCc1ccncc1)n1cnc2ccccc21 (stereo not shown) [CBK282202],92.8263

row,SMILES,% of control remaining
1,CC1CCN(S(=O)(=O)c2ccc(Cl)c(C(=O)Nc3ccc(C(=O)O)cc3)c2)CC1 [CBK265170],98.1148
2,Cc1ccc(S(=O)(=O)OCCOS(=O)(=O)c2ccc(C)cc2)cc1 [CBK260986],106.076
3,COc1ccc(-c2noc(-c3cnccn3)n2)c(OC)c1 [CBK287878],85.4389
4,Cn1c(-c2cc(=O)c(C(=O)O)c[nH]2)n[nH]c1=O [CBK012603],60.1164
5,Oc1ccc(Nc2ccnc3cc(Cl)ccc23)cc1 [CBK012365C],122.625
6,Cc1cc(C)n(C(C)C(=O)NCC2(N(C)C)CCCC2)n1 (stereo not shown) [CBK281713],57.4378
7,O=C(COC(=O)C1CCN(S(=O)(=O)c2cccc3cccnc23)CC1)c1cccc([N+](=O)[O-])c1 [CBK264435],107.602
8,Cc1ccc(NC(=O)c2cnc3ccc(C)cn3c2=O)cc1 [CBK287285],84.9264
9,Cn1nc(CN2CCNC(=O)C2c2ccccc2C(F)(F)F)[nH]c1=O (stereo not shown) [CBK306269],51.2189
10,O=C(NCc1ccccc1)c1c(O)c2ccccc2n(Cc2ccccc2)c1=O [CBK291174],92.1253
11,CN(C(=O)CN1CCN(c2cc(-c3cc4ccccc4o3)ncn2)CC1)c1ccccc1 [CBK091128],149.658
12,O=S(=O)(c1ccc2ccccc2c1)N1CCCCC1CO (stereo not shown) [CBK200055],85.9442
13,CN(C)CCNC(=O)C1CCCN(c2nc3c(-c4ccccc4)csc3c(=O)[nH]2)C1 (stereo not shown) [CBK215501],102.708
14,Cn1c(=O)[nH]c2c(nc(-c3ccccc3)n2C)c1=O [CBK287855],104.458
15,O=C(CC1CC1)N1CCC2(CCN(Cc3ccccc3)C2)C1 (stereo not shown) [CBK136825],105.363
16,CC[C@H]1CN(C(=O)C2CC2)CC[C@H]1CC(=O)N(C)CC#N [CBK289132],98.4288
17,CC(C)C(N)c1nnc(SCc2ccccc2Cl)o1 (stereo not shown) [CBK270121C],98.6421
18,NC(=O)C1(N2CCCCC2)CCN(C(=S)NC2CCCC2)CC1 [CBK091884],68.4899
19,O=C(NCCN1CCOCC1)NC(=O)c1ccc(Cl)cc1 [CBK269446],66.0949
20,CC(NC(=O)CCc1nc2ccccc2n1C)c1ccccn1 (stereo not shown) [CBK281823],94.7091
21,CSCCN1CCC2(CC1)CN(C(=O)C(C)C)c1ccccc12 [CBK131473],91.1509
22,COC(=O)C1=C(C)N(c2cccc(C(F)(F)F)c2)C(=O)/C1=C\c1ccc(C(=O)O)cc1 [CBK265129],102.509
23,CN1C2CCC1CC(OC(=O)CNC1CCCCC1)C2 (stereo not shown) [CBK278161C],86.2734
24,CCc1nc(CN(C(C)=O)C2CCN(CCc3ccccn3)C2)no1 (stereo not shown) [CBK305372],34.2517
25,Cn1nc(-c2ccc(S(=O)(=O)Nc3nc(=O)[nH]cc3F)s2)cc1C(F)(F)F [CBK067574],95.1909
26,Cc1sc2nc(SCCCN3C(=O)c4cccc5cccc(c45)C3=O)nc(N)c2c1C [CBK264424],117.345
27,COc1ccc(Cl)cc1NC(=S)NNC(=O)c1cc(C)nc2ccccc12 [CBK266920],70.0925

row,SMILES,% of control remaining
1,O=C(c1ccoc1)N1CCC2(CCCN(CCCn3c(=O)[nH]c4ccccc43)C2)C1 (stereo not shown) [CBK132818],112.004
2,c1csc(-c2cncc(NCc3ccncc3)n2)c1 [CBK065583],114.888
3,CC1CCc2c(sc3ncnc(SCC(=O)N(C)CCC#N)c23)C1 (stereo not shown) [CBK305896],96.8663
4,CCOC(=O)c1c(-c2ccc(C)o2)csc1NC(=O)CN1CCCCC1C (stereo not shown) [CBK265917],106.891
5,CCOc1ccccc1NC(=O)CN(c1cc(C(F)(F)F)ccc1Cl)S(C)(=O)=O [CBK264627],99.3931
6,O=C(Cc1cccs1)N1CCC(O)(c2ccccn2)CC1 [CBK283587],107.726
7,COc1ccc2c(c1)c(C(=O)N1CCC3(CCNCC3)CC1)c(C)n2C [CBK306562],84.4777
8,CSCCC(Nc1ncnc2c1c(C)c(C)n2Cc1ccco1)C(=O)O (stereo not shown) [CBK307568],106.017
9,CC(C)[C@@H](CO)Nc1nccnc1-c1ccoc1 [CBK036648],107.752
10,CCOC(=O)/C(=N/O)C(=O)c1c[nH]c2ccccc12 [CBK260979],106.383
11,COc1ccc(C(=O)Nc2nnc(-c3ccc(OC)c(OC)c3)o2)cc1OC [CBK287745],107.098
12,c1ccc(Nc2c(-c3ccccc3)nc3[nH]cnn23)cc1 [CBK287284],87.1948
13,Cc1cc(C(F)(F)F)nn1CCC(=O)Nc1cnn(C)c1C(=O)O [CBK286817],99.4111
14,CC(C)Cc1nc(C(=O)N2CCC3(C2)NC(=O)NC3=O)cs1 (stereo not shown) [CBK305534],44.2321
15,COc1ccc(CCNC(=S)n2cc(C)cn2)cc1OC [CBK267001],85.9376
16,CC1CCc2c(C(=O)Nc3ncc(Cc4ccccc4)s3)csc2C1 (stereo not shown) [CBK300531],15.1264
17,O=C1O[C@@H](CO)CN1c1ccc(N(Cc2ccccc2)Cc2ccccc2)c(F)c1 [CBK016873],76.3516
18,Cc1ccc(NC(=O)c2ccccc2NS(=O)(=O)c2ccc(C(C)C)cc2)cc1 [CBK113800],103.672
19,Cc1nnc(CN2CCOC(c3nc(C(C)(C)C)cs3)C2)n1C (stereo not shown) [CBK305772],12.5002
20,O=c1n(CC2CCCCC2)c2ccccc2n1S(=O)(=O)c1cccc(Cl)c1 [CBK106521],91.8931
21,O=C(CSCc1c(Cl)cccc1Cl)Nc1ccc(S(=O)(=O)N2CCOCC2)cc1 [CBK266276],95.2312
22,CC1CCC(C(C)C)C(OCC(O)CN2CCN(C)CC2)C1 (stereo not shown) [CBK278213C],86.472
23,Fc1ccccc1CN1CCC(Oc2cncc(OCCN3CCOCC3)n2)C1 (stereo not shown) [CBK084479],94.258
24,O=C(Nc1ccc(OCc2ccoc2)cc1C(=O)O)c1ccc(Cl)cc1Cl [CBK003768D],78.1327
25,CCn1cc(-c2cncn2CCCC(C)(C)CO)cn1 [CBK281704],88.3066
